# Source: the supplement of paper PMC8728848
# Some of the results follow.
# How the values were obtained:
# Test in all cases: glycan array binding signal (z-score within array); higher = stronger binding
# Conditions in all cases: glycan notation: IUPAC condensed, linker removed; mutation: E227G
# [1] = target: Gal3S(b1-3)[Fuc(a1-4)]GlcNAc
# In short: (§1)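 Glycan array data were curated from 3228 arrays in the Consortium for Functional Glycomics database and kept only where the protein sequence was available. Glycan names were converted to IUPAC-condensed notation, and columns mapping to the same glycan were averaged. The binding signal is a within-array Z-score, averaged across arrays of the same protein sequence at different concentrations or buffers and across linkers. Negative Z-scores can be read as non-binding.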
# Gal3S(b1-4)Glc = target: Gal3S(b1-4)Glc
# In short: as §1
# Gal3S(b1-4)Glc6S = target: Gal3S(b1-4)Glc6S
# In short: as §1
# Gal3S(b1-4)GlcNAc = target: Gal3S(b1-4)GlcNAc
# In short: as §1
# [2] = target: Gal3S(b1-4)[Fuc(a1-3)]Glc6S
# In short: as §1
# [3] = target: Gal3S(b1-4)[Fuc(a1-3)]GlcNAc
# In short: as §1
# [4] = target: Gal3S(b1-4)[Fuc(a1-3)]GlcNAc6S
# In short: as §1
# Gal3S4S(b1-4)GlcNAc = target: Gal3S4S(b1-4)GlcNAc
# In short: as §1
# Gal3S6S(b1-4)GlcNAc = target: Gal3S6S(b1-4)GlcNAc
# In short: as §1
# Gal3S6S(b1-4)GlcNAc6S = target: Gal3S6S(b1-4)GlcNAc6S
# In short: as §1
# Gal4S(b1-4)GlcNAc = target: Gal4S(b1-4)GlcNAc
# In short: as §1
# Gal4S6S(b1-4)GlcNAc = target: Gal4S6S(b1-4)GlcNAc
# In short: as §1
# Gal6P(b1-4)GlcNAc = target: Gal6P(b1-4)GlcNAc
# In short: as §1
# Gal6S(b1-3)GlcNAc = target: Gal6S(b1-3)GlcNAc
# In short: as §1
# Gal6S(b1-3)GlcNAc6S = target: Gal6S(b1-3)GlcNAc6S
# In short: as §1
# Gal6S(b1-4)Glc = target: Gal6S(b1-4)Glc
# In short: as §1
# Gal6S(b1-4)Glc6S = target: Gal6S(b1-4)Glc6S
# In short: as §1
# Gal6S(b1-4)GlcNAc = target: Gal6S(b1-4)GlcNAc
# In short: as §1
# Gal6S(b1-4)GlcNAc6S = target: Gal6S(b1-4)GlcNAc6S
# In short: as §1
# GalNAc(a1-3)Gal = target: GalNAc(a1-3)Gal
# In short: as §1
# GalNAc(a1-3)GalNAc = target: GalNAc(a1-3)GalNAc
# In short: as §1
# [5] = target: GalNAc(a1-3)GalNAc(b1-3)Gal(a1-4)Gal(b1-4)Glc
# In short: as §1
# [6] = target: GalNAc(a1-3)GalNAc(b1-3)Gal(a1-4)Gal(b1-4)GlcNAc
# In short: as §1
# GalNAc(b1-3)Gal = target: GalNAc(b1-3)Gal
# In short: as §1
# [7] = target: GalNAc(b1-3)Gal(a1-4)Gal(b1-4)GlcNAc
# In short: as §1
# [8] = target: GalNAc(b1-3)Gal(a1-4)Gal(b1-4)GlcNAc(b1-3)Gal(b1-4)Glc
# In short: as §1
# [9] = target: GalNAc(b1-3)Gal(a1-6)Gal(b1-4)Glc
# In short: as §1
# GalNAc(b1-3)GalNAc = target: GalNAc(b1-3)GalNAc
# In short: as §1
# GalNAc(b1-3)GlcNAc = target: GalNAc(b1-3)GlcNAc
# In short: as §1
# GalNAc(b1-4)Gal(b1-4)Glc = target: GalNAc(b1-4)Gal(b1-4)Glc
# In short: as §1
# GalNAc(b1-4)GlcNAc = target: GalNAc(b1-4)GlcNAc
# In short: as §1
# [10] = target: GalNAc(b1-4)GlcNAc(b1-2)Man
# In short: as §1
# [11] = target: GalNAc(b1-4)GlcNAc(b1-2)Man(a1-3)[GalNAc(b1-4)GlcNAc(b1-2)Man(a1-6)]Man(b1-4)GlcNAc(b1-4)GlcNAc
# In short: as §1
# [12] = target: GalNAc(b1-4)GlcNAc(b1-3)GalNAc(b1-4)GlcNAc
# In short: as §1
# GalNAc(b1-4)GlcNAc6S = target: GalNAc(b1-4)GlcNAc6S
# In short: as §1
# GalNAc(b1-6)GalNAc = target: GalNAc(b1-6)GalNAc
# In short: as §1
# GalNAc3S(b1-4)GlcNAc = target: GalNAc3S(b1-4)GlcNAc
# In short: as §1
# GalNAc3S(b1-4)GlcNAc3S = target: GalNAc3S(b1-4)GlcNAc3S
# In short: as §1
# [13] = target: GalNAc3S(b1-4)[Fuc(a1-3)]GlcNAc
# In short: as §1
# GalNAc4S6S(b1-4)GlcNAc = target: GalNAc4S6S(b1-4)GlcNAc
# In short: as §1
# GalNAc6S(b1-4)GlcNAc = target: GalNAc6S(b1-4)GlcNAc
# In short: as §1
# Glc(a1-4)Glc = target: Glc(a1-4)Glc
# In short: as §1
# [14] = target: Glc(a1-4)Glc(a1-4)Glc(a1-4)Glc
# In short: as §1
# Glc(a1-6)Glc(a1-6)Glc = target: Glc(a1-6)Glc(a1-6)Glc
# In short: as §1
# [15] = target: Glc(a1-6)Glc(a1-6)Glc(a1-6)Glc
# In short: as §1
# Glc(b1-4)Glc = target: Glc(b1-4)Glc
# In short: as §1
# Glc(b1-6)Glc = target: Glc(b1-6)Glc
# In short: as §1
# GlcA(b1-3)Gal = target: GlcA(b1-3)Gal
# In short: as §1
# GlcA(b1-3)GlcNAc = target: GlcA(b1-3)GlcNAc
# In short: as §1
# GlcA(b1-6)Gal = target: GlcA(b1-6)Gal
# In short: as §1
# [16] = target: GlcA3S(b1-3)Gal(b1-4)GlcNAc(b1-2)Man
# In short: as §1
# [17] = target: GlcA3S(b1-3)Gal(b1-4)GlcNAc(b1-3)Gal(b1-4)Glc
# In short: as §1
# [18] = target: GlcNAc(a1-3)Gal(b1-4)GlcNAc
# In short: as §1
# [19] = target: GlcNAc(a1-4)Gal(b1-3)GlcNAc
# In short: as §1
# [20] = target: GlcNAc(a1-4)Gal(b1-4)GalNAc
# In short: as §1
# [21] = target: GlcNAc(a1-4)Gal(b1-4)GlcNAc
# In short: as §1
# [22] = target: GlcNAc(a1-4)Gal(b1-4)GlcNAc(b1-3)Gal(b1-4)Glc
# In short: as §1
# [23] = target: GlcNAc(a1-4)Gal(b1-4)GlcNAc(b1-3)Gal(b1-4)GlcNAc
# In short: as §1
# [24] = target: GlcNAc(a1-4)Gal(b1-4)GlcNAc(b1-3)Gal(b1-4)GlcNAc(b1-3)Gal(b1-4)GlcNAc
# In short: as §1
# [25] = target: GlcNAc(a1-4)Gal(b1-4)GlcNAc(b1-3)Gal(b1-4)[Fuc(a1-3)]GlcNAc(b1-3)Gal(b1-4)[Fuc(a1-3)]GlcNAc
# In short: as §1
binder,measurement,setting,value
"Epa1-NP-mutant-E227G (Candida glabrata), Q6VBJ0 (protein) MILNPALFLNKCVCIYTTLILLLLTNGGYATSSNDISLASKDPTTFPLGCSPDITTPKKGLSMELYSYDFRKKGSYPCWDAAYLDPNYPRTGYKSHRLLAKVDGVTGNINFYYHATKGCTPQLGHLPASYNYPKPLTMTNFTMLLYGYFRPKVTGFHTFTISADDLLFVNFGAGNAFDCCRRDSSADHFGNYQAYAIWGSKTAKDELTVHLDAGVYYPIRLFYNNRGYDGALSFTFKTESNENTVSDFSEYFFSLDDTEEGCPGLISYDSSCASVKTSKIIGIDYHTETPNENLVPITKTIYHLGIPCTGTTTTPLCGSGFYDPLANKCVTINTSSTSSVTKTTSHTTSKEVSFHSSISSQKTLIPKSIPSPYGPIKSQSIPTEMETSSEISSSEYAFSDVISTPSHSPYTKKHSSLNSSSYTSTVIHSLTSYSISQGIFSTSLSEQNITSKSSTDKFSTATSMSNNITQSSIIISQFSTNNENYTTTSMHTSSDKISTETLNNSISTTTSILFSNSSTILKNNTTIISSDKDTHYHPVNPTIVCSTNKTEIICASITQPSISNSNNHWSSSVLKFNSTTVRSTLPSSAGSNETSINVPFSSSTESNTSTSSTSTSNSKMVRSTLPSSAGSNETSISVPFSSSTESNTSTSSTSTSNSKMVRSTLPSSAGSNETSINVPFSSSTESNTSTSSTSTSNSKTVRSTPFSSAGIIMTSLSQRNNKSASSYASSNSKCYNTADSCRKVHSTPSYLLTSSYTSEGVDYDCSLVSTKLKINDTNCVNNKHTTKSCLKTSVTTTIPTLEIKTARKSSSNTIGLHSYPTSSPNKSISSAPIIGYISSFKTIKTASPSYQTSDLTTITTITSLNNPGSTAVENTHESNDKSRKTSSNDISSKHSVIKETKDAVESSNKSHQTNTLKCSSIIIASSSHNSYESLGGTTLTLTLSKVYSPQNNDTLPFLEISEVNPSRTVLPESSKMMQYLTSTEERNKTARNTIATNIVSISTFHFEGEGNAIRMGYTQLLLMLIGIIVMNIGT",glycan array binding signal (z-score),[1],0
same,glycan array binding signal (z-score),Gal3S(b1-4)Glc,-0.178
same,glycan array binding signal (z-score),Gal3S(b1-4)Glc6S,-0.083
same,glycan array binding signal (z-score),Gal3S(b1-4)GlcNAc,-0.125
same,glycan array binding signal (z-score),[2],0.018
same,glycan array binding signal (z-score),[3],-0.205
same,glycan array binding signal (z-score),[4],-0.019
same,glycan array binding signal (z-score),Gal3S4S(b1-4)GlcNAc,-0.134
same,glycan array binding signal (z-score),Gal3S6S(b1-4)GlcNAc,-0.088
same,glycan array binding signal (z-score),Gal3S6S(b1-4)GlcNAc6S,0.516
same,glycan array binding signal (z-score),Gal4S(b1-4)GlcNAc,-0.27
same,glycan array binding signal (z-score),Gal4S6S(b1-4)GlcNAc,-0.177
same,glycan array binding signal (z-score),Gal6P(b1-4)GlcNAc,-0.136
same,glycan array binding signal (z-score),Gal6S(b1-3)GlcNAc,0.07
same,glycan array binding signal (z-score),Gal6S(b1-3)GlcNAc6S,3.58
same,glycan array binding signal (z-score),Gal6S(b1-4)Glc,0.019
same,glycan array binding signal (z-score),Gal6S(b1-4)Glc6S,13
same,glycan array binding signal (z-score),Gal6S(b1-4)GlcNAc,-0.157
same,glycan array binding signal (z-score),Gal6S(b1-4)GlcNAc6S,12.7
same,glycan array binding signal (z-score),GalNAc(a1-3)Gal,-0.19
same,glycan array binding signal (z-score),GalNAc(a1-3)GalNAc,-0.146
same,glycan array binding signal (z-score),[5],-0.316
same,glycan array binding signal (z-score),[6],-0.08
same,glycan array binding signal (z-score),GalNAc(b1-3)Gal,-0.165
same,glycan array binding signal (z-score),[7],-0.107
same,glycan array binding signal (z-score),[8],-0.14
same,glycan array binding signal (z-score),[9],-0.169
same,glycan array binding signal (z-score),GalNAc(b1-3)GalNAc,-0.259
same,glycan array binding signal (z-score),GalNAc(b1-3)GlcNAc,-0.142
same,glycan array binding signal (z-score),GalNAc(b1-4)Gal(b1-4)Glc,-0.258
same,glycan array binding signal (z-score),GalNAc(b1-4)GlcNAc,-0.103
same,glycan array binding signal (z-score),[10],-0.204
same,glycan array binding signal (z-score),[11],-0.164
same,glycan array binding signal (z-score),[12],-0.194
same,glycan array binding signal (z-score),GalNAc(b1-4)GlcNAc6S,-0.066
same,glycan array binding signal (z-score),GalNAc(b1-6)GalNAc,-0.146
same,glycan array binding signal (z-score),GalNAc3S(b1-4)GlcNAc,0.001
same,glycan array binding signal (z-score),GalNAc3S(b1-4)GlcNAc3S,-0.147
same,glycan array binding signal (z-score),[13],-0.117
same,glycan array binding signal (z-score),GalNAc4S6S(b1-4)GlcNAc,-0.22
same,glycan array binding signal (z-score),GalNAc6S(b1-4)GlcNAc,-0.232
same,glycan array binding signal (z-score),Glc(a1-4)Glc,-0.175
same,glycan array binding signal (z-score),[14],-0.19
same,glycan array binding signal (z-score),Glc(a1-6)Glc(a1-6)Glc,-0.08
same,glycan array binding signal (z-score),[15],-0.087
same,glycan array binding signal (z-score),Glc(b1-4)Glc,-0.154
same,glycan array binding signal (z-score),Glc(b1-6)Glc,-0.141
same,glycan array binding signal (z-score),GlcA(b1-3)Gal,-0.114
same,glycan array binding signal (z-score),GlcA(b1-3)GlcNAc,-0.203
same,glycan array binding signal (z-score),GlcA(b1-6)Gal,0.489
same,glycan array binding signal (z-score),[16],-0.248
same,glycan array binding signal (z-score),[17],-0.278
same,glycan array binding signal (z-score),[18],-0.195
same,glycan array binding signal (z-score),[19],-0.054
same,glycan array binding signal (z-score),[20],-0.296
same,glycan array binding signal (z-score),[21],-0.066
same,glycan array binding signal (z-score),[22],-0.145
same,glycan array binding signal (z-score),[23],-0.063
same,glycan array binding signal (z-score),[24],-0.1
same,glycan array binding signal (z-score),[25],0.002
